Source: PubChem BioAssay AID2528 (National Center for Advancing Translational Sciences (NCATS), 2010)
The whole screen tested about 350,000 compounds, of which about 700 (0.2%) were called active. Calls come from the whole dose curve; as a rule, active = well fitted inhibition curve with a large enough effect; inconclusive = small, poorly fitted or top-dose-only effect; inactive = flat fitted curve, though single readings scatter. The list shows a part of the results, in another mix than the full data. Where a structure was tested more than once in an assay, its records may differ in their call.

What follows are compounds tested against RecQ-like DNA helicase BLM (Homo sapiens) (UniProt P54132) (assay: qHTS Assay for Inhibitors of Bloom's syndrome helicase (BLM)). Conditions: recombinant BLM DNA unwinding, fluorescence dequenching; series mostly up to 56.1 µM; activity change, negative = inhibition: at the top concentration.
Note: nearly all actives have a fitted effect of over 35% in size.
Potency is the fitted concentration of half-maximal effect.
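Throughout, for activity change, negative = inhibition: plate controls were vehicle for no effect and no enzyme for full effect.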

Chain of UniProt P54132 (P54132 whole entry, looked up): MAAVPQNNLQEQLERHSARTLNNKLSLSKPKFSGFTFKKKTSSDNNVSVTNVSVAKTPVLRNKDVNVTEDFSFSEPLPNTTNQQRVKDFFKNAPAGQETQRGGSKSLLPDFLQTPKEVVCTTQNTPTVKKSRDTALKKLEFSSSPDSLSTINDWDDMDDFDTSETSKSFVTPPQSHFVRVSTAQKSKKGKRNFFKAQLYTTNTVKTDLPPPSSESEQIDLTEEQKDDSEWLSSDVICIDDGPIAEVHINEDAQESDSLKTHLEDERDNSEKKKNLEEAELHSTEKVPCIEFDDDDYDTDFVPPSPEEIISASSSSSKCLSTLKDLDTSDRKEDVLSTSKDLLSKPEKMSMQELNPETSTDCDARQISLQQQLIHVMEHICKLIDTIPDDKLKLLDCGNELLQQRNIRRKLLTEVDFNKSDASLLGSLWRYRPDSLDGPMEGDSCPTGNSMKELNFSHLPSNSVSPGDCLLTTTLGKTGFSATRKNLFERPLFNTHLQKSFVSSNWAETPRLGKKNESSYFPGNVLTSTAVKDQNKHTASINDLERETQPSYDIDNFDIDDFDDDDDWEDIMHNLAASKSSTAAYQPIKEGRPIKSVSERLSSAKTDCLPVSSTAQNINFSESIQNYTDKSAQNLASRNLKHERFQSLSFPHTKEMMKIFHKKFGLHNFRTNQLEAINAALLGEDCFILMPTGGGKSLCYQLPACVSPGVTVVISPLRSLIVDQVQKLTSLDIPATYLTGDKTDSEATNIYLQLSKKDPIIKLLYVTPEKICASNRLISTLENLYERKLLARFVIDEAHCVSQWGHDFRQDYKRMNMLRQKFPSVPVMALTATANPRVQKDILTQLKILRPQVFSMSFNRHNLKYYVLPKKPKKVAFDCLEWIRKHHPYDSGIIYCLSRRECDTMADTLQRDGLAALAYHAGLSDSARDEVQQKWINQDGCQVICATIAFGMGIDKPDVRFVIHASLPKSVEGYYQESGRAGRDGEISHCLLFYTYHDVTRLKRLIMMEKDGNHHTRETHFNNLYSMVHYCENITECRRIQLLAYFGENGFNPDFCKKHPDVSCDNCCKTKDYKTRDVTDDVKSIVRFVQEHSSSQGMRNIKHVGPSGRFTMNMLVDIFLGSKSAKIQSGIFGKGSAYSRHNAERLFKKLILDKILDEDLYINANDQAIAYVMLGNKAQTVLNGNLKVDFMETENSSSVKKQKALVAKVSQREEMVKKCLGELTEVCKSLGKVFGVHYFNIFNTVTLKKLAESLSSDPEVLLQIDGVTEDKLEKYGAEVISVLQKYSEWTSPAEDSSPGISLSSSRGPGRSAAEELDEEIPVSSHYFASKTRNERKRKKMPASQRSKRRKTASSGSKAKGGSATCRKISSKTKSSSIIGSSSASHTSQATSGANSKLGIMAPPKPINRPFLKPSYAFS

Compound	activity change, negative = inhibition	Potency
NCCC(=O)NCCc1cnc[nH]1	inactive: 1.48% [at 21.4 µM]	
CC(=O)OCC1=C(C(=O)O)N2C(=O)C(NC(=O)Cc3cccs3)C2SC1 (stereo not drawn)	inactive: 25.2%	
C[C@]12CCC3c4ccc(O)cc4CCC3[C@@H]1CCC2=O (stereo partly drawn)	inactive: -0.716% [at 21.4 µM]	
Cc1ccccc1/C=C/c1nc2ccccc2c(=O)[nH]1	inactive: -21.7%	
COc1ccccc1NC(=O)Cn1c(O)c(N=NC(=O)c2ccccc2O)c2ccccc21		active: 17.8 µM
CS(=O)(=O)c1ccc2c(c1)sc1nc(=O)c(/C=C3/C=CC(=O)C(O)=C3)c(N)n12		active: 25.1 µM
CN(C)CCC[C@]1(c2ccc(F)cc2)OCc2cc(C#N)ccc21	inactive: 0.67%	
C=CCN1CCc2cc(O)c(O)cc2[C@H](c2ccccc2)C1	inactive: 3.63%	
O=C1C(Cl)=C(NC2CCc3ccccc32)C(=O)c2ncccc21 (stereo not drawn)		active: 2.51 µM
CC(C)NC[C@@H](O)COc1ccc(CCOCC2CC2)cc1		inactive
NC(N)=Nc1nc(CSCC/C(N)=N\S(N)(=O)=O)cs1	inactive: 5.51%	
COc1ccc(C(CC(=O)N2CCOCC2)c2c(OC)cc(OC)c3c(-c4ccccc4)cc(=O)oc23)cc1 (stereo not drawn)	inactive: -20.9%	
CC(=O)Nc1cc(OC(C)=O)c2nonc2c1OC(C)=O		active: 1.58 µM
CCN(Cc1ccncc1)C(=O)C(CO)c1ccccc1 (stereo not drawn)		inactive
N=C(N)c1ccccc1	inactive: -0.722%	
O=C(NCCNCC(O)COc1ccc(O)cc1)N1CCOCC1 (stereo not drawn)	inactive: 3.48%	
COc1ccc(C(=O)NCc2cccnc2)cc1C(=O)NCc1cccnc1	inactive: 1.88% [at 21.4 µM]	
O=[N+]([O-])c1cc2c(cc1/C=N/n1c(-c3ccccc3)n[nH]c1=S)OCO2		active: 17.8 µM
COc1ccc2[nH]cc(CCNC(C)=O)c2c1		inactive
O=Nc1c(-c2c(O)[nH]c3ccccc23)[nH]c2ccccc12	inactive: -11.3%	
NCCS(=O)(=O)O		inactive
C[C@@](N)(Cc1ccc(O)cc1)C(=O)O	inactive: 1.9%	
CC(C)(C)NC[C@H](O)c1cc(O)cc(O)c1	inactive: -6.94%	
COCCNC(=O)Nc1ccc2nc(-c3ccco3)c(-c3ccco3)nc2c1		active: 12.6 µM

Compound	activity change, negative = inhibition	Potency
C=C[C@H](N)CCC(=O)O		inactive
CC(=O)OC1C(=O)[C@@]2(C)C(O)CC3OC[C@]3(OC(C)=O)C2C(OC(=O)c2ccccc2)[C@]2(O)CC(OC(=O)C(O)C(NC(=O)c3ccccc3)c3ccccc3)C(C)=C1C2(C)C (stereo partly drawn)	inactive: 6.71%	
O=c1[nH]c2ccccc2c2ccccc12	inactive: -9.61%	
C#CCN(C)Cc1ccccc1		inactive
CN/C(=C/[N+](=O)[O-])NCCSCc1ccc(CN(C)C)o1	inactive: -6.21%	
CCN(CC)CCNC(=O)c1cc(S(C)(=O)=O)ccc1OC		inactive
O=C1c2ccccc2C(=O)c2c(NCCCN(CCO)CCO)cccc21		active: 15.8 µM
CC(C)C[C@@H](CC(=O)N[C@H](CC(=O)N[C@@H]1CCCC[C@H]1C(=O)N[C@H](CC(=O)N[C@@H](CCC(=O)O)CC(=O)O)Cc1c[nH]c2ccccc12)C(C)C)NC(=O)[C@@H]1CCCC[C@H]1N		active: 7.08 µM
CC1=C(\C=C/C(C)=C/C=C\C(C)=C\C(=O)O)C(C)(C)CCC1		inactive
Nc1ccn([C@@H]2CC[C@H](CO)O2)c(=O)n1	inactive: -0.585% [at 21.4 µM]	
NC(C(=O)O)C(O)C(=O)O (stereo not drawn)	inactive: 0.865%	
O=C(COC(=O)c1ccc(NS(=O)(=O)c2cccs2)cc1)NCc1ccco1		active: 14.1 µM
Nc1nc(SCc2ccc([N+](=O)[O-])cc2)c2ncn(C3OC(CO)C(O)C3O)c2n1 (stereo not drawn)	inactive: -4.58%	
Nc1c(C(=O)NC2CC2)sc2nc3c(c(-c4ccco4)c12)CC/C3=C/c1ccco1		active: 5.62 µM
Cn1c(=O)c(C(=O)COC(=O)c2cc(-c3ccco3)nc3ccccc23)c(N)n(CC2CC2)c1=O	inactive: -27.8%	
CN(C)CCC[C@@]1(c2ccc(F)cc2)OCc2cc(C#N)ccc21		inactive
O=C(Cc1cccs1)N/N=C/C=C/c1ccco1		active: 25.1 µM
O=Nc1c(-c2c(O)[nH]c3cc(Br)ccc23)[nH]c2ccccc12	inactive: -16%	
CC[C@H](C)C(=O)O[C@H]1CCC=C2C=C[C@H](C)[C@H](CC[C@@H]3C[C@@H](O)CC(=O)O3)[C@H]21		inactive
CC(=O)c1ccc(NC(=O)c2ccc3nc(-c4ccco4)c(-c4ccco4)nc3c2)cc1		active: 15.8 µM
O=C(/C=C/c1ccc(O)c(O)c1)OCCc1ccccc1		inactive
NNc1nncc2ccccc12		inactive
COc1ccc([C@H]2Sc3ccccc3N(CCN(C)C)C(=O)[C@H]2OC(C)=O)cc1	inactive: 1.31% [at 21.4 µM]	
COc1cccc(/C=N/Nc2nc(Nc3ccc([N+](=O)[O-])cc3)nc(N3CCCC3)n2)c1O		active: 28.2 µM

Compound	activity change, negative = inhibition	Potency
O=C(OCC1OC(OC(=O)c2cc(O)c(O)c(OC(=O)c3cc(O)c(O)c(O)c3)c2)[C@@H](OC(=O)c2cc(O)c(O)c(OC(=O)c3cc(O)c(O)c(O)c3)c2)C(OC(=O)c2cc(O)c(O)c(OC(=O)c3cc(O)c(O)c(O)c3)c2)C1OC(=O)c1cc(O)c(O)c(OC(=O)c2cc(O)c(O)c(O)c2)c1)c1cc(O)c(O)c(OC(=O)c2cc(O)c(O)c(O)c2)c1 (stereo partly drawn)		active: 0.0708 µM
CC(=O)[C@]1(O)Cc2c(O)c3c(c(O)c2[C@@H](O[C@H]2C[C@H](N)[C@H](O)[C@H](C)O2)C1)C(=O)c1ccccc1C3=O	inactive: -56.3%	
C=CC1(C)CC(=O)C2(O)C(C)(O1)C(OC(C)=O)C(O)C1C(C)(C)CCC(O)C12C (stereo not drawn)	inactive: -0.934%	
Nc1ncnc2c1c(-c1ccc(Oc3ccccc3)cc1)cn2C1CCCC1	inactive: -13.6%	
CCOc1ccc2nc(N3C(=O)/C(=C/c4ccc(Cl)cc4)NC3=S)sc2c1		active: 28.2 µM
CCC(C)N(C)C(=O)c1cc2ccccc2c(-c2ccccc2Cl)n1 (stereo not drawn)	inactive: -12.8%	
COc1cc2c(cc1C(F)(F)F)N(C(=O)Nc1cc(F)cc(-c3cccnc3)c1)CC2	inactive: -24.3%	
CN(C)c1nc(N(C)C)nc(N(C)C)n1		inactive
O=C(COC(=O)c1cccc(S(=O)(=O)N2CCN(c3ccccc3)CC2)c1)NCc1ccco1		active: 17.8 µM
CC(=O)O[C@H]1C(=O)[C@@]2(C)C([C@H](OC(=O)c3ccccc3)[C@]3(O)C[C@H](OC(=O)[C@H](O)[C@@H](NC(=O)c4ccccc4)c4ccccc4)C(C)=C1C3(C)C)[C@]1(OC(C)=O)CO[C@@H]1C[C@H]2O (stereo partly drawn)	inactive: -12.6%	
COc1ccccc1OCC(O)CN1CCN(CC(=O)Nc2c(C)cccc2C)CC1 (stereo not drawn)	inactive: -3.41%	
O=[N+]([O-])c1cccc2cn[nH]c12		inactive
CC(=O)OCC(=O)[C@@]1(O)CCC2C3CCC4=CC(=O)CC[C@]4(C)C3C(=O)C[C@]21C (stereo partly drawn)	inactive: -7.37%	
O=c1c(O)c(-c2ccc(O)cc2O)oc2cc(O)cc(O)c12		inactive
C=C[C@]1(C)CC(=O)[C@@]2(O)[C@@]3(C)C(O)CCC(C)(C)C3C(O)C(OC(C)=O)[C@@]2(C)O1 (stereo partly drawn)	inactive: 3.19%	
COc1ccc(C2CNC(=O)C2)cc1OC1CCCC1 (stereo not drawn)		inactive
Fc1ccc(NC(=S)Nc2cccc3cnccc23)cc1		active: 22.4 µM
Cc1ccc(-c2nn3c(C)nnc3s2)cc1NC(=O)c1ccc(-c2ccc(Cl)cc2Cl)o1		active: 11.2 µM
Oc1cc2c(cc1O)[C@H](c1ccccc1)CNCC2	inactive: 0.966%	
CC#C[C@]1(O)CC[C@H]2[C@@H]3CCC4=CC(=O)CCC4=C3[C@H](c3ccc(N(C)C)cc3)C[C@@]21C	inactive: -11.1%	
Cc1ccc([N+](=O)[O-])cc1S(=O)(=O)N(C)C		inactive
Fc1cccc(/C=N\N=C/c2cccc(F)c2)c1	inactive: -0.519%	
O=C(OC1Cc2c(O)cc(O)cc2OC1c1cc(O)c(O)c(O)c1-c1c(C2Oc3cc(O)cc(O)c3CC2O)cc(O)c(O)c1O)c1cc(O)c(O)c(O)c1 (stereo not drawn)		active: 6.31 µM
COc1ccc(-n2cccc2/C=C2\C(=N)N3N=C(c4ccco4)SC3=NC2=O)cc1		active: 12.6 µM

Compound	activity change, negative = inhibition	Potency
CNCC(O)c1cccc(O)c1 (stereo not drawn)	inactive: -11.4%	
Oc1ccc(N=Cc2ccc(OCc3ccccc3)cc2)cc1		active: 31.6 µM
CC(C)(C)[C@]1(O)CCN2C[C@H]3c4ccccc4CCc4cccc(c43)[C@@H]2C1	inactive: -8.58%	
CCn1c(SCC(N)=O)nc2sc3c(c2c1=O)CCN(C)C3		active: 0.708 µM
CC(C)NC[C@H](O)c1cc(O)cc(O)c1	inactive: 3.08% [at 21.4 µM]	
CC(=O)O[C@H]1C(=O)[C@@]2(C)[C@H]([C@H](OC(=O)c3ccccc3)[C@]3(O)C[C@H](OC(=O)[C@H](O)C(NC(=O)c4ccccc4)c4ccccc4)C(C)=C1C3(C)C)[C@]1(OC(C)=O)CO[C@@H]1C[C@@H]2O (stereo partly drawn)	inactive: -8.6%	
CCc1cccc2c3c([nH]c12)[C@@](CC)(CC(=O)O)OCC3	inactive: -4.29% [at 21.4 µM]	
CN(C)C1C(=O)C(C(N)=O)=C(O)[C@@]2(O)C(=O)C3=C(O)c4c(O)ccc(Cl)c4C(O)[C@H]3C[C@@H]12 (stereo partly drawn)	inactive: -12.9%	
O=C(O)C1=CCCNC1		inactive
Cc1cc(C)c(/C=C2\C(=O)Nc3ccccc32)[nH]1		inactive
Cc1ccc(-c2nc3c(c(SCC(=O)Nc4cccc(C(=O)O)c4)n2)Cc2cccc(C)c2O3)cc1		active: 4.47 µM
O=C(CSc1nc(-c2ccc(F)cc2)nc2c1Cc1ccccc1O2)Nc1ccc(C(=O)O)cc1		active: 8.91 µM
Cc1cccc(C#Cc2ccccc2)n1	inactive: 2.66%	
N[C@H](C(=O)O)c1cc(O)cc(O)c1		inactive
COc1c(-c2ccc(O)c(O)c2)oc2cc(O)cc(O)c2c1=O	inactive: 4.41%	
N[C@]1(C(=O)O)CCc2cc(C(=O)O)ccc21	inactive: -9.36%	
Cc1ccc(Cl)c(Nc2ccccc2C(=O)O)c1Cl		inactive
Cc1cc(/C=C/c2ccc3cc(N(C)C)ccc3[n+]2C)c(C)n1-c1ccccc1	inactive: -23.2%	
CCn1nc(C(=O)O)c(=O)c2cc3c(cc21)OCO3		inactive
COc1cccc(=O)c2c(C)n(CC(=O)c3ccccc3)c(C)c12		active: 25.1 µM
C[C@]12CC[C@@H]3c4ccc(O)cc4CC[C@H]3[C@@H]1CC[C@H]2O	inactive: -0.226%	
